# Some of the results follow.
# B1: XL-35 (Xenopus laevis) (protein)
# chain: MLVHILLLLVTGGLSQSCDPVVIVASKNMVKQLDCDKFRNCKEIKDSNEEAQDGIYTLTSPDGISYQTFCDMTTNGGGWTLVASVHENNMAGKCTIGDRWSSQQGNRADYPEGDGNWANYNTFGSAGGATSDDYKNPGYYDIEAYNLGVWHVPNKTPLSVWRNSSLQRYRTTDGILFKHGGNLFSLYRIYPVKYGIGSCSKDSGPTVPVVYDLGSANLTASFYSPGFRSQFTPGYIQFRPINTEKAALALCPGMKMESCNVEHVCIGGGGYFPEADPRQCGDFAAYDFNGYGTKKFNSAGIEITEAAVLLFYL
# Columns and labels:
# Assay in all cases: glycan array binding signal (z-score within array); higher = stronger binding
# Details in all cases: glycan notation: IUPAC condensed, linker removed
# [1] = molecular target: Neu5Ac(a2-8)Neu5Ac
# Summary of the method: (§1)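 Columns mapping to the same glycan were averaged after glycan names were converted to IUPAC-condensed notation. The data come from 3228 arrays in the Consortium for Functional Glycomics database, limited to those with an available protein sequence. Binding is reported as a within-array Z-score averaged across arrays of one protein sequence and across linkers.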
# [2] = molecular target: Neu5Ac(a2-8)Neu5Ac(a2-3)Gal(b1-3)GalNAc(b1-4)[Neu5Ac(a2-3)]Gal(b1-4)Glc
# Summary of the method: as §1
# [3] = molecular target: Neu5Ac(a2-8)Neu5Ac(a2-3)Gal(b1-3)GalNAc(b1-4)[Neu5Ac(a2-8)Neu5Ac(a2-3)]Gal(b1-4)Glc
# Summary of the method: as §1
# [4] = molecular target: Neu5Ac(a2-8)Neu5Ac(a2-3)Gal(b1-4)Glc
# Summary of the method: as §1
# [5] = molecular target: Neu5Ac(a2-8)Neu5Ac(a2-3)Gal(b1-4)GlcNAc
# Summary of the method: as §1
# [6] = molecular target: Neu5Ac(a2-8)Neu5Ac(a2-3)[Gal(b1-3)GalNAc(b1-4)]Gal(b1-4)Glc
# Summary of the method: as §1
# [7] = molecular target: Neu5Ac(a2-8)Neu5Ac(a2-3)[GalNAc(b1-4)]Gal(b1-4)Glc
# Summary of the method: as §1
# [8] = molecular target: Neu5Ac(a2-8)Neu5Ac(a2-8)Neu5Ac
# Summary of the method: as §1
# [9] = molecular target: Neu5Ac(a2-8)Neu5Ac(a2-8)Neu5Ac(a2-3)Gal(b1-4)Glc
# Summary of the method: as §1
# [10] = molecular target: Neu5Ac(a2-8)Neu5Ac(a2-8)Neu5Ac(a2-3)[Gal(b1-3)GalNAc(b1-4)]Gal(b1-4)Glc
# Summary of the method: as §1
# [11] = molecular target: Neu5Ac(a2-8)Neu5Ac(a2-8)Neu5Ac(a2-3)[GalNAc(b1-4)]Gal(b1-4)Glc
# Summary of the method: as §1
# [12] = molecular target: Neu5Ac(a2-8)Neu5Ac(a2-8)Neu5Ac(a2-8)Neu5Ac(a2-3)[GalNAc(b1-4)]Gal(b1-4)Glc
# Summary of the method: as §1
# [13] = molecular target: Neu5Ac(a2-8)Neu5Gc(a2-3)Gal(b1-4)GlcNAc
# Summary of the method: as §1
# [14] = molecular target: Neu5Ac(b2-6)Gal(b1-4)GlcNAc
# Summary of the method: as §1
# [15] = molecular target: Neu5Ac(b2-6)GalNAc
# Summary of the method: as §1
# [16] = molecular target: Neu5Ac9Ac(a2-3)Gal(b1-3)GlcNAc
# Summary of the method: as §1
# [17] = molecular target: Neu5Ac9Ac(a2-3)Gal(b1-4)GlcNAc
# Summary of the method: as §1
# [18] = molecular target: Neu5Ac9Ac(a2-6)Gal(b1-4)GlcNAc
# Summary of the method: as §1
# [19] = molecular target: Neu5Gc(a2-3)Gal(b1-3)GlcNAc
# Summary of the method: as §1
# [20] = molecular target: Neu5Gc(a2-3)Gal(b1-3)[Fuc(a1-4)]GlcNAc
# Summary of the method: as §1
# [21] = molecular target: Neu5Gc(a2-3)Gal(b1-4)Glc
# Summary of the method: as §1
# [22] = molecular target: Neu5Gc(a2-3)Gal(b1-4)GlcNAc
# Summary of the method: as §1
# [23] = molecular target: Neu5Gc(a2-3)Gal(b1-4)GlcNAc(b1-3)Gal(b1-4)GlcNAc(b1-2)Man(a1-3)[Neu5Gc(a2-3)Gal(b1-4)GlcNAc(b1-3)Gal(b1-4)GlcNAc(b1-2)Man(a1-6)]Man(b1-4)GlcNAc(b1-4)GlcNAc
# Summary of the method: as §1
# [24] = molecular target: Neu5Gc(a2-3)Gal(b1-4)[Fuc(a1-3)]GlcNAc
# Summary of the method: as §1
# [25] = molecular target: Neu5Gc(a2-3)Gal(b1-4)[Fuc(a1-4)]GlcNAc
# Summary of the method: as §1
# [26] = molecular target: Neu5Gc(a2-6)Gal(b1-4)GlcNAc
# Summary of the method: as §1
# [27] = molecular target: Neu5Gc(a2-6)GalNAc
# Summary of the method: as §1
# [28] = molecular target: Neu5Gc(a2-8)Neu5Ac(a2-3)Gal(b1-4)GlcNAc
# Summary of the method: as §1
# [29] = molecular target: Neu5Gc(a2-8)Neu5Gc(a2-3)Gal(b1-4)GlcNAc
# Summary of the method: as §1
# [30] = molecular target: Neu5Gc(a2-8)Neu5Gc(a2-3)Gal(b1-4)GlcNAc(b1-3)Gal(b1-4)GlcNAc
# Summary of the method: as §1
# [31] = molecular target: Neu5Gc(a2-8)Neu5Gc(a2-6)Gal(b1-4)GlcNAc
# Summary of the method: as §1
# [32] = molecular target: Neu5Gc(b2-6)Gal(b1-4)GlcNAc
# Summary of the method: as §1
binder,measurement,setting,value
B1,glycan array binding signal (z-score),[1],-0.216
same,glycan array binding signal (z-score),[2],-0.43
same,glycan array binding signal (z-score),[3],0.319
same,glycan array binding signal (z-score),[4],-0.079
same,glycan array binding signal (z-score),[5],-0.645
same,glycan array binding signal (z-score),[6],-0.062
same,glycan array binding signal (z-score),[7],-0.257
same,glycan array binding signal (z-score),[8],-0.113
same,glycan array binding signal (z-score),[9],-0.205
same,glycan array binding signal (z-score),[10],0.08
same,glycan array binding signal (z-score),[11],0.02
same,glycan array binding signal (z-score),[12],0.161
same,glycan array binding signal (z-score),[13],0.012
same,glycan array binding signal (z-score),[14],-0.252
same,glycan array binding signal (z-score),[15],-0.153
same,glycan array binding signal (z-score),[16],-0.403
same,glycan array binding signal (z-score),[17],-0.407
same,glycan array binding signal (z-score),[18],-0.226
same,glycan array binding signal (z-score),[19],-0.235
same,glycan array binding signal (z-score),[20],-0.185
same,glycan array binding signal (z-score),[21],0.032
same,glycan array binding signal (z-score),[22],-0.172
same,glycan array binding signal (z-score),[23],-0.139
same,glycan array binding signal (z-score),[24],-0.361
same,glycan array binding signal (z-score),[25],-0.087
same,glycan array binding signal (z-score),[26],-0.141
same,glycan array binding signal (z-score),[27],-0.112
same,glycan array binding signal (z-score),[28],0.085
same,glycan array binding signal (z-score),[29],-0.302
same,glycan array binding signal (z-score),[30],-0.367
same,glycan array binding signal (z-score),[31],0.417
same,glycan array binding signal (z-score),[32],0.189
